Some of the results follow.
Assays:
HSkMC = human skeletal muscle cells; experiment: cytotoxicity call (relative viability < 0.9); settings: 10 µM
HepG2 = experiment: cytotoxicity call (relative viability < 0.9); settings: 10 µM
S. aureus RN4220 = experiment: growth inhibition call (relative growth <= 0.2); settings: 50 µM

Row | Structure (SMILES) | cytotoxicity call (HSkMC) | cytotoxicity call (HepG2) | growth inhibition call (S. aureus RN4220)
1 | CC(C)CC#Cc1cnc2c(c1)C(=O)N([C@@H](C)CO)C[C@H](C)[C@@H](CN(C)C(=O)c1ccc3c(c1)OCO3)O2 | inactive | inactive | inactive
2 | C[C@@H]1CN([C@@H](C)CO)S(=O)(=O)c2ccc(C#CCN(C)C)cc2O[C@H]1CN(C)C(=O)C1CCCCC1 | inactive | inactive | inactive
3 | O=C(O)c1cc2cc(F)ccc2s1 | inactive | inactive | inactive
4 | O=C(C[C@@H]1CC[C@@H]2[C@H](COC[C@@H](O)CN2C(=O)Nc2ccc(Cl)c(Cl)c2)O1)NCc1ccncc1 | inactive | active | active
5 | C[C@H](CO)N1C[C@H](C)[C@@H](CN(C)Cc2ccncc2)OCCCC[C@H](C)Oc2ccc(NC(=O)CCC(F)(F)F)cc2C1=O | inactive | inactive | inactive
6 | COC(=O)[C@H](Cc1ccc(-n2cc(C(=O)NO)nn2)cc1)N1C[C@](C)(OC)O[C@@H](Cc2ccccc2)[C@H]1/C=C/C1CC1 | inactive | inactive | inactive
7 | CC(=O)OC[C@H]1O[C@@H](NC(N)=O)[C@H](OC(C)=O)[C@@H](OC(C)=O)[C@@H]1OC(C)=O | inactive | inactive | inactive
8 | C[C@@H]1CCCCO[C@@H](CN(C)Cc2ccc3c(c2)OCO3)[C@@H](C)CN([C@@H](C)CO)C(=O)c2cc(NC(=O)Nc3ccc(C(F)(F)F)cc3)ccc2O1 | active | active | inactive
9 | Cl.Cl.N=C(NCCCCCCNC(=N)NC(=N)Nc1ccc(Cl)cc1)NC(=N)Nc1ccc(Cl)cc1 | active | active | active
10 | CCC(=O)N(C)C[C@@H]1Oc2ncc(C#C[C@H](C)O)cc2C(=O)N([C@@H](C)CO)C[C@@H]1C | inactive | inactive | inactive
11 | C#CCN(C)Cc1ccccc1.Cl | inactive | inactive | inactive
12 | C[C@H](CO)N1C[C@H](C)[C@H](CN(C)Cc2ccncc2)Oc2ccc(NC(=O)Cn3cnnn3)cc2CC1=O | inactive | inactive | inactive
13 | O=C(C[C@H]1C[C@H]2c3cc(NC(=O)C4CCOCC4)ccc3O[C@H]2[C@H](CO)O1)NCCN1CCCCC1 | inactive | inactive | inactive
14 | CN1CC[C@@]2(C(=O)N3CCOCC3)CCN(S(C)(=O)=O)CC[C@H]12 | inactive | inactive | inactive
15 | CC(C)NC(=O)Nc1cccc2c1O[C@H](CN(C)S(=O)(=O)c1cn(C)cn1)[C@H](C)CN([C@H](C)CO)C2=O | inactive | inactive | inactive
16 | C[C@@H]1CN([C@@H](C)CO)S(=O)(=O)c2ccc(C#Cc3ccc(F)cc3)cc2O[C@H]1CN(C)S(C)(=O)=O | inactive | inactive | inactive
17 | COCC(=O)N1C[C@@H](C)[C@@H](OC)CN(C)C(=O)c2ccc(NC(=O)c3ccc(OC)cc3)cc2OC[C@H]1C | inactive | inactive | inactive
18 | CS(=O)(=O)N1CCN2C[C@H](C(=O)O)CN(Cc3ccco3)C[C@@H]2C1 | inactive | inactive | inactive
19 | C[C@@H]1CN([C@H](C)CO)C(=O)c2cc(NC(=O)CCCN(C)C)ccc2O[C@@H]1CN(C)C(=O)NC1CCCCC1 | inactive | inactive | inactive

Row | Structure (SMILES) | cytotoxicity call (HSkMC) | cytotoxicity call (HepG2) | growth inhibition call (S. aureus RN4220)
20 | C[C@H]1CN([C@@H](C)CO)C(=O)c2cccc(NC(=O)Nc3ccc(C(F)(F)F)cc3)c2O[C@H]1CN(C)S(C)(=O)=O | inactive | inactive | inactive
21 | Cc1noc(C)c1S(=O)(=O)Nc1cccc2c1O[C@@H](CN(C)S(C)(=O)=O)[C@@H](C)CN([C@@H](C)CO)C2=O | inactive | active | inactive
22 | C[C@@H]1CCCCO[C@H](CN(C)Cc2ccc(C(=O)O)cc2)[C@@H](C)CN([C@@H](C)CO)C(=O)c2cc(NS(=O)(=O)c3cccs3)ccc2O1 | inactive | inactive | inactive
23 | C[C@@H]1CCCCO[C@@H](CN(C)S(=O)(=O)c2ccccc2)[C@@H](C)CN([C@@H](C)CO)C(=O)c2cc(NC(=O)Nc3ccccc3)ccc2O1 | inactive | inactive | inactive
24 | C[C@@H]1CN([C@@H](C)CO)C(=O)Cc2cc(NC(=O)Cc3cn(C)c4ccccc34)ccc2O[C@@H]1CN(C)C(=O)Nc1cccc2ccccc12 | inactive | inactive | inactive
25 | C[C@H]1CCCCO[C@@H](CN(C)C(=O)Nc2ccc(C(F)(F)F)cc2)[C@@H](C)CN([C@@H](C)CO)C(=O)c2cc(NC(=O)NC3CCCCC3)ccc2O1 | inactive | inactive | inactive
26 | Cc1noc(C)c1NC(=O)N(C)C[C@@H]1Oc2ccc(NC(=O)C3CC3)cc2C(=O)N([C@H](C)CO)C[C@H]1C | inactive | inactive | inactive
27 | Cc1ccc(S(=O)(=O)N(C)C[C@@H]2OCCCC[C@@H](C)Oc3ccc(NC(=O)CCC(F)(F)F)cc3C(=O)N([C@H](C)CO)C[C@@H]2C)cc1 | inactive | inactive | inactive
28 | COc1cc(C(=O)N2CCOCC2)cc(OC)c1OC | inactive | inactive | inactive
29 | CN(C)CCCNC(=O)C[C@@H]1CC[C@H]2[C@H](COc3ccc(NC(=O)c4ccccc4F)cc3C(=O)N2C)O1 | inactive | inactive | inactive
30 | CC(C)CC#Cc1cnc2c(c1)C(=O)N([C@H](C)CO)C[C@@H](C)[C@@H](CN(C)C(=O)c1ccc3c(c1)OCO3)O2 | inactive | inactive | inactive
31 | COC(=O)Cn1c(Cl)nc2c1c(=O)n(C)c(=O)n2C | inactive | inactive | inactive
32 | C[C@@H]1CN([C@@H](C)CO)C(=O)c2cc(NC(=O)Nc3ccc4c(c3)OCO4)ccc2O[C@H]1CN(C)Cc1ccc(Cl)c(Cl)c1 | inactive | active | inactive
33 | Nc1c2c(nc3ccccc13)CCCC2 | inactive | inactive | inactive
34 | Cc1noc(C)c1S(=O)(=O)Nc1ccc2c(c1)C(=O)N([C@H](C)CO)C[C@@H](C)[C@@H](CN(C)CC1CCCCC1)OCCCC[C@H](C)O2 | inactive | inactive | inactive
35 | Cc1c2c(nn1C)CSCc1cc(n(C)n1)CSc1cc(c3ccccc3c1)OCCCc1c(C(=O)O)n(C)c3c-2c(Cl)ccc13 | inactive | inactive | active
36 | COc1ccc(S(=O)(=O)N(C)C[C@@H]2Oc3ncc(C#Cc4ccc(OC)c(OC)c4)cc3C(=O)N([C@H](C)CO)C[C@@H]2C)cc1 | inactive | active | inactive
37 | C[C@@H]1CN([C@H](C)CO)C(=O)c2cccc(NC(=O)C3CCOCC3)c2O[C@H]1CN(C)S(=O)(=O)c1cccs1 | inactive | inactive | inactive
38 | C[C@@]12CCC[C@](C)(C(=O)O[C@@H]3O[C@H](CO)[C@@H](O)[C@H](O)[C@H]3O)[C@@H]1CC[C@]13C[C@H](CC[C@@H]12)[C@](O)(CO)C3 | inactive | inactive | inactive
